# Data taken from the supplement of paper PMC8728848.
# The other results are listed elsewhere or left out.
# B1: RVL (Remusatia vivipara), B5LYJ9 (protein)
# chain: MAKLLLFLLPAILGLLVPRSAVALGTNYLLSGQTLDTEGHLKNGDFDLVMQDDCNLVLYNGNWQSNTANNGRDCKLTLTDYGELVIKNGDGSTVWKSGAQSVKGNYAAVVHPDGRLVVLGPSVFKIDPWVRGLNSLRFRNIPFTNNLLFSGQVLYGDGRLTAKNHQLVMQGDCNLVLYGGKYGWQSNTHGNGEHCFLRLNHKGELIIKDDDFKTIWSSRSSSKQGEYVLILQDDGFGVIYGPAIFETSSKRSIAAS
# Experiments:
# Experiment in all cases: glycan array binding signal (z-score within array); higher = stronger binding
# Details in all cases: glycan notation: IUPAC condensed, linker removed
# Neu5Ac(a2-6)GalNAc = molecular target: Neu5Ac(a2-6)GalNAc
# Outline: (§1)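 Glycan array data came from 3228 arrays in the Consortium for Functional Glycomics database, and only arrays with an available protein sequence were kept. Glycan names were put into IUPAC-condensed notation, and columns mapping to the same glycan were averaged. The binding signal is a within-array Z-score, averaged across arrays of one protein sequence run at different concentrations or buffers and across linkers. A negative Z-score can be read as non-binding.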
# [1] = molecular target: Neu5Ac(a2-6)GalNAc(b1-4)GlcNAc
# Outline: as §1
# [2] = molecular target: Neu5Ac(a2-6)GalNAc(b1-4)GlcNAc6S
# Outline: as §1
# [3] = molecular target: Neu5Ac(a2-6)GlcNAc(b1-4)GlcNAc
# Outline: as §1
# [4] = molecular target: Neu5Ac(a2-6)GlcNAc(b1-4)GlcNAc(b1-4)GlcNAc
# Outline: as §1
# Neu5Ac(a2-8)Neu5Ac = molecular target: Neu5Ac(a2-8)Neu5Ac
# Outline: as §1
# [5] = molecular target: Neu5Ac(a2-8)Neu5Ac(a2-3)Gal(b1-3)GalNAc(b1-4)[Neu5Ac(a2-8)Neu5Ac(a2-3)]Gal(b1-4)Glc
# Outline: as §1
# [6] = molecular target: Neu5Ac(a2-8)Neu5Ac(a2-3)Gal(b1-4)Glc
# Outline: as §1
# [7] = molecular target: Neu5Ac(a2-8)Neu5Ac(a2-3)[Gal(b1-3)GalNAc(b1-4)]Gal(b1-4)Glc
# Outline: as §1
# [8] = molecular target: Neu5Ac(a2-8)Neu5Ac(a2-3)[GalNAc(b1-4)]Gal(b1-4)Glc
# Outline: as §1
# [9] = molecular target: Neu5Ac(a2-8)Neu5Ac(a2-8)Neu5Ac
# Outline: as §1
# [10] = molecular target: Neu5Ac(a2-8)Neu5Ac(a2-8)Neu5Ac(a2-3)Gal(b1-4)Glc
# Outline: as §1
# [11] = molecular target: Neu5Ac(a2-8)Neu5Ac(a2-8)Neu5Ac(a2-3)[GalNAc(b1-4)]Gal(b1-4)Glc
# Outline: as §1
# [12] = molecular target: Neu5Ac(a2-8)Neu5Ac(a2-8)Neu5Ac(a2-8)Neu5Ac(a2-3)[GalNAc(b1-4)]Gal(b1-4)Glc
# Outline: as §1
# [13] = molecular target: Neu5Ac(b2-6)Gal(b1-4)GlcNAc
# Outline: as §1
# Neu5Ac(b2-6)GalNAc = molecular target: Neu5Ac(b2-6)GalNAc
# Outline: as §1
# [14] = molecular target: Neu5Ac9Ac(a2-3)Gal(b1-3)GlcNAc
# Outline: as §1
# [15] = molecular target: Neu5Ac9Ac(a2-3)Gal(b1-4)GlcNAc
# Outline: as §1
# [16] = molecular target: Neu5Ac9Ac(a2-6)Gal(b1-4)GlcNAc
# Outline: as §1
# [17] = molecular target: Neu5Gc(a2-3)Gal(b1-3)GlcNAc
# Outline: as §1
# [18] = molecular target: Neu5Gc(a2-3)Gal(b1-3)[Fuc(a1-4)]GlcNAc
# Outline: as §1
# Neu5Gc(a2-3)Gal(b1-4)Glc = molecular target: Neu5Gc(a2-3)Gal(b1-4)Glc
# Outline: as §1
# [19] = molecular target: Neu5Gc(a2-3)Gal(b1-4)GlcNAc
# Outline: as §1
# [20] = molecular target: Neu5Gc(a2-3)Gal(b1-4)[Fuc(a1-3)]GlcNAc
# Outline: as §1
# [21] = molecular target: Neu5Gc(a2-6)Gal(b1-4)GlcNAc
# Outline: as §1
# Neu5Gc(a2-6)GalNAc = molecular target: Neu5Gc(a2-6)GalNAc
# Outline: as §1
# [22] = molecular target: Neu5Gc(b2-6)Gal(b1-4)GlcNAc
# Outline: as §1
binder,measurement,setting,value
B1,glycan array binding signal (z-score),Neu5Ac(a2-6)GalNAc,-0.09
same,glycan array binding signal (z-score),[1],-0.165
same,glycan array binding signal (z-score),[2],-0.509
same,glycan array binding signal (z-score),[3],-0.067
same,glycan array binding signal (z-score),[4],0.035
same,glycan array binding signal (z-score),Neu5Ac(a2-8)Neu5Ac,-0.1
same,glycan array binding signal (z-score),[5],-0.385
same,glycan array binding signal (z-score),[6],-0.125
same,glycan array binding signal (z-score),[7],-0.073
same,glycan array binding signal (z-score),[8],-0.312
same,glycan array binding signal (z-score),[9],-0.197
same,glycan array binding signal (z-score),[10],0.02
same,glycan array binding signal (z-score),[11],0.457
same,glycan array binding signal (z-score),[12],0.546
same,glycan array binding signal (z-score),[13],-0.009
same,glycan array binding signal (z-score),Neu5Ac(b2-6)GalNAc,-0.243
same,glycan array binding signal (z-score),[14],-0.284
same,glycan array binding signal (z-score),[15],0.499
same,glycan array binding signal (z-score),[16],-0.208
same,glycan array binding signal (z-score),[17],-0.19
same,glycan array binding signal (z-score),[18],-0.191
same,glycan array binding signal (z-score),Neu5Gc(a2-3)Gal(b1-4)Glc,-0.251
same,glycan array binding signal (z-score),[19],-0.111
same,glycan array binding signal (z-score),[20],-0.134
same,glycan array binding signal (z-score),[21],-0.153
same,glycan array binding signal (z-score),Neu5Gc(a2-6)GalNAc,-0.34
same,glycan array binding signal (z-score),[22],-0.238
